Measured values from the supplement of paper PMC10441789.
This is one part of the list. Antibody binding of pooled human sera (four to six donors per pool; dilution not stated) to peptides of the Trypanosoma cruzi antigen TSSA on microarrays. Quantile-normalised fluorescence in arbitrary units, mean of duplicate arrays; higher = more binding. No active / inactive call. The uninfected pools are read here as the healthy donors of the same country. The strongest signals lie near the top of the scale (about 60,000).

Tests used:
Assay in all cases: antibody binding signal (normalised fluorescence) (arbitrary fluorescence units); higher = stronger serum antibody binding to peptide
[1] = test system: pooled sera of chronic Chagas disease patients, Argentina
Experimental: (§1)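 Microarray of 15-residue peptides over residues 30-55 of Trypanosoma cruzi TSSAII, each with 1 to 10 substitutions at naturally variable positions, probed with one serum pool per country.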

[2] = test system: pooled sera of chronic Chagas disease patients, Bolivia
Experimental: as §1

[3] = test system: pooled sera of chronic Chagas disease patients, Brazil
Experimental: as §1

[4] = test system: pooled sera of chronic Chagas disease patients, Colombia
Experimental: as §1

[5] = test system: pooled sera of chronic Chagas disease patients, Mexico
Experimental: as §1

[6] = test system: pooled sera of chronic Chagas disease patients, USA
Experimental: as §1

[7] = test system: pooled sera of uninfected people, Argentina
Experimental: as §1

[8] = test system: pooled sera of uninfected people, Bolivia
Experimental: as §1

[9] = test system: pooled sera of uninfected people, Brazil
Experimental: as §1

[10] = test system: pooled sera of uninfected people, Colombia
Experimental: as §1

[11] = test system: pooled sera of uninfected people, Mexico
Experimental: as §1

[12] = test system: pooled sera of uninfected people, USA
Experimental: as §1

Sequence	antibody binding signal [1]	antibody binding signal [2]	antibody binding signal [3]	antibody binding signal [4]	antibody binding signal [5]	antibody binding signal [6]	antibody binding signal [7]	antibody binding signal [8]	antibody binding signal [9]	antibody binding signal [10]	antibody binding signal [11]	antibody binding signal [12]
DNKPATGGTPSQSGA	400	1040	1580	225	442	315	262	514	704	258	310	156
SGTDNKAAAGGAPSP	292	319	45200	4000	434	689	182	744	1620	314	184	356
TENKPATGEAPSPSG	45000	48500	51900	260	636	40700	972	671	387	102	170	169
GTDNKPAAGGTPSQS	2340	274	42800	2030	368	297	229	1070	1390	490	704	158
ENKTAAGETPSPSGA	262	1050	598	273	328	2340	154	218	202	128	155	461
NKTATGETPSPSGAS	406	1990	4200	221	500	7260	435	814	433	407	199	1560
STPPSGKENKTATGE	18600	30200	12800	543	3270	4320	1920	1570	287	1100	285	254
STPPSGKDNKPATGE	33100	35000	37000	322	19500	23400	544	1010	393	251	234	141
SGTDNKTATGGTPSP	658	1020	43100	703	425	465	252	653	1870	644	201	253
KEKKPATGEAPSQSG	42100	25800	37800	176	199	29700	782	247	117	179	111	397
TPPSGTENKAATGET	45700	37500	46000	311	2890	17200	1740	303	229	371	241	216
SGKENKPATGGTPSP	3470	646	17000	3780	5010	17700	10000	3870	189	358	408	189
PSGKEKKTATGGAPS	7830	2150	5180	9070	9150	6260	358	309	265	117	173	137
NKAAAGGAPSQSGAS	445	199	1840	4270	876	461	838	1190	275	315	715	1050
DKKAAAGEAPSQPGA	5640	7500	38900	293	287	10800	143	188	151	146	153	160
ENKAAAGEAPSPSGA	345	807	18800	255	161	13100	145	108	116	65.8	83.1	98.7
KKTAAGGAPSQSGAS	194	255	163	3250	618	251	216	103	119	148	107	201
STPPSGTEKKPAAGG	44200	4510	43600	909	40700	13800	1850	934	506	157	426	1590
TDNKTAAGEAPSPSG	207	744	1880	146	211	7660	139	296	230	155	96.6	142
PSGKENKTAAGETPS	10200	3650	10600	9380	9070	9240	7190	3710	252	923	661	282
SSTPPSGKDKKPAAG	17500	8770	8580	338	42200	1150	359	513	227	198	223	160
SGTEKKPAAGETPSP	1750	837	6360	767	548	2350	97.6	756	305	169	243	667
GTENKTAAGEAPSQS	26800	20300	11200	668	961	9420	270	493	240	247	158	135
ENKTAAGEAPSPSGA	198	993	2150	196	243	7690	195	104	182	149	111	125
DNKPAAGGAPSQSGA	223	676	4120	1510	325	475	216	400	552	225	384	171

Sequence	antibody binding signal [1]	antibody binding signal [2]	antibody binding signal [3]	antibody binding signal [4]	antibody binding signal [5]	antibody binding signal [6]	antibody binding signal [7]	antibody binding signal [8]	antibody binding signal [9]	antibody binding signal [10]	antibody binding signal [11]	antibody binding signal [12]
SGKENKAAAGEAPSQ	4200	6300	28200	7350	5550	19400	8940	3370	107	452	398	149
TENKAATGGTPSQSG	28000	1310	519	425	504	281	218	147	541	182	261	209
GTEKKTATGGTPSPS	1010	547	725	4430	1160	1920	249	594	348	772	186	144
PPSGKEKKTAAGGAP	1750	512	1800	5980	4570	2460	307	292	99.9	166	111	254
PSGTDKKPAAGEAPS	9110	4950	32500	11800	3510	13400	205	727	504	444	3500	268
ISTPPSGKDNKTAAG	23800	1660	3140	1160	31900	3170	284	420	161	250	101	190
SGKENKPAAGETPSP	2940	4140	19700	3800	4200	14200	8030	4870	170	334	670	418
KDNKTAAGGAPSPSG	557	237	251	3330	387	377	306	120	160	189	97.8	142
KDKKPAAGGTPSPSG	181	234	158	1480	129	393	102	85.5	545	134	82.1	107
SGTEKKTATGEAPSP	10600	27500	10700	628	348	18100	183	290	290	182	131	130
KENKAAAGETPSQPG	1400	722	33300	163	168	2820	142	227	108	167	182	157
DNKTATGGAPSPSGA	607	476	643	808	379	586	336	240	662	241	505	199
TISTPPSGKDNKTAA	7940	1650	3390	1970	16000	3410	1400	556	268	274	105	258
KKPAAGGTPSQPGAS	171	201	244	1660	138	413	339	219	718	151	145	327
TEKKAATGEAPSPPG	19900	31000	26100	404	576	21200	524	130	205	587	161	260
KDNKAATGEAPSPSG	23500	28800	31100	176	231	23400	370	1010	195	182	90.6	156
KDKKTATGGAPSPSG	462	219	249	1200	262	476	206	79.7	95.2	81	84.7	124
SSTPPSGTDNKPATG	43400	44900	48700	6970	15800	35100	1910	1390	574	374	1150	478
KDNKPATGGAPSPSG	424	1590	2410	260	250	1540	466	801	169	164	156	149
GKDNKPAAGETPSQP	1460	1360	35800	1300	1880	3810	411	850	161	291	352	103
TPPSGTEKKAATGGA	30900	1560	24000	1070	4210	1810	989	726	193	652	104	500
KENKTATGGTPSPPG	267	584	262	625	273	488	219	153	135	155	171	128
SSTPPSGTEKKTATG	32800	4600	30300	405	16800	3670	860	335	141	120	221	175
PPSGTEKKTATGGTP	19700	2010	12800	3170	2020	3870	806	359	356	579	134	190
PPSGTDNKTAAGGTP	34500	26400	46900	2890	1790	3550	390	789	2220	363	1780	325
